Sequences and labels used below:
B1: LINE1-mini (parent)
chain: GGCAGAGCUCAACACAGCGUGGCAAAGUGGCUGUGGCUAGACUGCC

The source gives no read counts; variants with many changes may rest on few reads.

The variants in this series derive from B1. As to the kind of experiment: self-cleavage, relative activity (ratio to wild type); higher = more cleavage; in vitro, sequencing; the parent is a self-cleaving ribozyme.
On to A6G C23A G27A C37U C42G, for which the self-cleavage turned out to be 0. Take A6G C13U G40U: the self-cleavage turned out to be 0.01.

Take A6G C10A U20A: the self-cleavage came out at 0.03. Consider A6U A12U U20G G29A, for which the self-cleavage was determined as 0.09. The result for A6G C15U G22C G40A reads 0.03; that for A6G U20G C45G, 0.03; that for A6U A12U U20G C31G, 0.05. Take A6G G29C C37U A39G C42G: the self-cleavage is 0. For A6G C18G U34C the value was 0.05.

With A6G C23G U43C, the self-cleavage amounted to 0.02. With A6G G22U G35C G40A A41U, the self-cleavage amounted to 0.09.

With A6G U9A A24G G40C, the self-cleavage stood at 0.12. On to A6G U20G U38G A41C C46G, for which the self-cleavage is 0.01. For A6G G17U C23U the value was 0.03.

For the variant A6G U20G G22A, the self-cleavage came to 0.06.

Turning to A6U A14C G17A U20G G44A, the self-cleavage was found to be 0.01. As to A6G G19A G35C, the self-cleavage is 0.01. For A6U A14G C45G the value was 0.25; for A6G C10G C18G U28A, 0.01; for A6G G22A C31U U32A, 0.05. For A6G G19C G21U U38G the value was 0.01; for A6G C23U G27A, 0.13; for A6G U20G G44A, 0.1. As to A6G C13A A41G, the self-cleavage worked out at 0.03. Turning to A6G A24U A41C C42U, the self-cleavage amounted to 0.19. Regarding A6G C10U G21U, the self-cleavage came out at 0.05. A6G G7C G22A G33C G35A: the self-cleavage was 0.06. In the case of A6G G7C C8A G30A, the self-cleavage is 1.05.

A6U A11C A14G G17C C18G: the self-cleavage stood at 0.02. Turning to A6G U9A G33A G35A, the self-cleavage was 0.06. Regarding A6G C8A A14G, the self-cleavage turned out to be 0.64. Turning to A6G U20A G29A, the self-cleavage came out at 0.05. For A6G G19A G27U the value was 0.09; for A6U A11G G19A G29U G36U, 0. Take A6G C10A G21U A26G G44U: the self-cleavage was found to be 0.01. For A6G A25C C37G A39C the value was 0.08; for A6U A12C A14G G19A U28G G33A, 0; for A6G G17A U28C A39C, 0.02. For the variant A6G A25U G29C U32A G35A C46A, the self-cleavage is 0.05. Turning to A6G G7U U9C C10A, the self-cleavage is 0.04. With A6G C13U C18G G35C, the self-cleavage amounted to 0.14. For A6G C8U G22A C23A C42U the value was 0.06.

For the variant A6G G19C A24C C37U G44A, the self-cleavage stood at 0.01. The result for A6G C10A G22C C42A C45A reads 0.01; that for A6G C15U C18A, 0.08; that for A6G U34C G40A C46U, 0.

A6G C23A G44U: the self-cleavage was 0.12.

As for A6G G7A G21U G35U G36A, the self-cleavage stood at 0.39. For A6G G21A G40U, the self-cleavage turned out to be 0.13. With A6G G21C C23U G40U G44C, the self-cleavage is 0.02. For A6G G22A A25C G27A G40A the value was 0.05; for A6U A14U A39C C45U, 0.48. For A6U A11U G22U the value was 0.34. A6G G30A G35U: the self-cleavage amounted to 0.11. Consider A6G C10A G29U G33A A41C, for which the self-cleavage turned out to be 0.01. For A6G C8U A16U G17U A24U U34A G40A C45G the value was 0; for A6G C13U U20C A26U, 0.02.

With A6G C31U C37G A39U, the self-cleavage amounted to 0.01. A6U A11U U20C A24C C31U G40U: the self-cleavage was 0.01. On to A6G C31A G35U C42G, for which the self-cleavage is 0.02. With A6G G36C C37U C45G C46U, the self-cleavage was 0. As for A6U A12U A14G G33U, the self-cleavage came out at 0.01. For A6G G7C G30A G40A the value was 0.04; for A6G C8U G17A U32A, 0.04. The result for A6G A26G C31A G44U C46G reads 0.06; that for A6G G22U C31U G44U, 0.03. For A6G G17A G21C, the self-cleavage is 0.08. The result for A6G C15A U20A G33U reads 0.02. The result for A6U A14C C15A G22C reads 0.15. The result for A6U A14G G40A reads 0.03; that for A6G U9C C15U C31G, 0.01; that for A6G C10A G17C G35A, 0.01.

On to A6G C8U C10U U32C C37A, for which the self-cleavage came to 0.07.

As to A6G G7A U34G, the self-cleavage was found to be 0.03. For A6G G19A A24C G40C G44U the value was 0.03; for A6G C8A A16U G27U, 0.03; for A6G G19A G21A G29C, 0.16. The result for A6G A24U A41C reads 0.06. The result for A6G C10A A25C G44A reads 0.03; that for A6G C8U A25G A26G C31A G33A U34A C37A, 0.02. Consider A6G G7C U9C C37A G40U A41C, for which the self-cleavage was 0.04. The result for A6G G22C G29A reads 0.11. The result for A6G G30U C31A G36U C42A reads 0.09. For A6G G19U C23U G33A the value was 0.06; for A6G A24U A26U G40C, 0.01. As to A6G G21U C31A, the self-cleavage was found to be 0.01. Turning to A6G C18A C31G A41C, the self-cleavage worked out at 0.04. On to A6G G29U G30C U34C, for which the self-cleavage was found to be 0.02. For A6G C15U G22C C37G C45A the value was 0.04; for A6G C15U C23A, 0.06; for A6G G30C C42U, 0.03. The result for A6G C10A C15A G36A C46A reads 0.01.

A6G G30A C46A: the self-cleavage was determined as 0.09. For A6G C18U G29A G30A the value was 0.17; for A6G U9G A25U C45G, 0.04; for A6G C8U A26G, 0.67. For A6G G17U A26U the value was 0.06. For A6G G36U C37A U38C the value was 0.03; for A6G C13A C31A C42U, 0; for A6U A11C A26C G40U, 0.01.

Turning to A6G U9G C15A C18G G27C A39U G40A, the self-cleavage turned out to be 0.04. For A6G U9G A11G G22U C46U the value was 0.03; for A6G G36U C37U, 0.01.

For the variant A6G C15G A26C, the self-cleavage turned out to be 0. Regarding A6G C8U G29C, the self-cleavage stood at 0.06. For A6U A11C C15A G30A the value was 0.03; for A6G C10A G17A A41C, 0.04. Consider A6G U32G G33U, for which the self-cleavage was 0.03. For A6G U9C C10U A11C A12U A24C U32A the value was 0.02; for A6G G7C C31U A41U, 0.06. Consider A6G A16U A25C A26U G27C C37A, for which the self-cleavage was found to be 0.04. For A6G C8A A26C A39C G40U the value was 0.02; for A6G C8A U38C, 0.04. For A6G C10A C13G C31A the value was 0.03; for A6G G22C G33A C37A, 0.01; for A6G U9C G29A G35C, 0.13.

Take A6G G17C A26G G40A: the self-cleavage came out at 0. Turning to A6G C8A G29A, the self-cleavage amounted to 0.08. Regarding A6G C15G G17U G19C G22C C23G G29U A39C U43C, the self-cleavage worked out at 0.02. A6G C18G A25U C45U: the self-cleavage came to 0.06.

As for A6G U9C C10A G19A, the self-cleavage amounted to 0.02. For A6U A14G U20G C31G A39U the value was 0.03; for A6U A12C C37A, 0.04; for A6G U28C G29U G40A C42A, 0.03. For A6G G19A A39C the value was 0.06; for A6G C8U G17U U34A A39C, 0.14.

As for A6G U9C A11G A16G C23G, the self-cleavage stood at 0.

As to A6U A14U C15G G33A C37U C46G, the self-cleavage came out at 0.01. Turning to A6G A26G G44U, the self-cleavage was determined as 0.02. The result for A6G G7A A11G C13A G21U reads 0.01. On to A6G C10G U20G U34C, for which the self-cleavage came out at 0.02.

Take A6G C13G G19C: the self-cleavage turned out to be 0.02. Take A6G U38A G40U: the self-cleavage worked out at 0.14.

As to A6G C18G G33C A41U, the self-cleavage was found to be 0.08.

For the variant A6G G19C C23U, the self-cleavage amounted to 0.02. For A6G G19C C23A the value was 0.04.

Consider A6U A12G A25U A41U, for which the self-cleavage was 0.

Consider A6G G17A G40A, for which the self-cleavage turned out to be 0.06. Consider A6G C8A C45U, for which the self-cleavage is 1.02.

With A6G G29U U38A, the self-cleavage was 0. Turning to A6G G17C C45A, the self-cleavage is 0.1. For the variant A6G G7C C23G U28C G30U U32G, the self-cleavage was determined as 0.03. For A6G A24G C31A G44A C46A the value was 0.03.

As to A6G U28A C42G, the self-cleavage stood at 0.

Consider A6G C15G G29U C31A, for which the self-cleavage was determined as 0.02.

A6G U32G G44C: the self-cleavage came out at 0.02.

As for A6G A25U G27U G29A A41G C45A, the self-cleavage was 0.04. As for A6U A14C A26U, the self-cleavage came out at 0.06. With A6U A11G G27C, the self-cleavage worked out at 0.01.

As for A6U A11C A12U C18U G19U C37A G40U, the self-cleavage came to 0.01. A6G C10A U20C G21A G27U U28G U32C G33A G36A: the self-cleavage is 0.01. With A6G G21A A24U C37U C45A, the self-cleavage is 0.07. On to A6G C15U G17C A39C, for which the self-cleavage stood at 0.03. For the variant A6G G7U A11G U20C A25C G27U, the self-cleavage was determined as 0.01.

Consider A6G U28A U34C, for which the self-cleavage stood at 0.02. A6G G22A C23U A24U G40C: the self-cleavage was 0.25. For A6G U43C G44C C45U the value was 0.06; for A6G C8A G22A, 0.19; for A6G C10G G30C C31U G44C, 0.01. For A6U A14C A16C G36C C37U A39U the value was 0.03; for A6G G7A U20C U38G, 0.01. For A6G C10A A11G, the self-cleavage is 0.02. The result for A6G G7C C15G G30A reads 0.03; that for A6G C8U G17U C46U, 0.05; that for A6U A14C G27C G33A, 0.13. On to A6G C10A A26U, for which the self-cleavage amounted to 0.01. As for A6G C8A G27C G30U, the self-cleavage turned out to be 0.03.

(Values after the RNAGym collection of RNA variant scans (doi:10.7554/elife.90254).)
